{"source": "paper PMC10726135", "note": "This is one part of the list. At the low end of the ranking the order means little. Measured with an extract: partners may take part in the binding."}
{"molecular_target": "T1, HNF4alpha8 (COS-7 nuclear extract) (UniProt P41235-5)", "T1 sequence": "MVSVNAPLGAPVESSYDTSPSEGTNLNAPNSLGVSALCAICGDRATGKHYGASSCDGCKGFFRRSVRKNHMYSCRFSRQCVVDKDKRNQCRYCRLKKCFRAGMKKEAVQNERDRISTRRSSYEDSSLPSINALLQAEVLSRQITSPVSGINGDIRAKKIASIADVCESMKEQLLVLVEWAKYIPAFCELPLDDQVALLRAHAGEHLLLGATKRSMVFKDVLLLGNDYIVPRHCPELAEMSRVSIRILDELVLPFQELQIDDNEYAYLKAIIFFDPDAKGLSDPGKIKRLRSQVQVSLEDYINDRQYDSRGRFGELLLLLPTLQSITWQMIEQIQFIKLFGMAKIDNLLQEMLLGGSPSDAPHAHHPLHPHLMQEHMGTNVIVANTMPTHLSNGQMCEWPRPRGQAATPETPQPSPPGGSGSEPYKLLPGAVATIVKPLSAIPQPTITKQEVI", "assay": "protein-binding microarray", "settings": "COS-7 nuclear extract on double-stranded Agilent 4x180k PBM; binding buffer, salt, pH and temperature not given; high values mean tight binding; double strand, one strand shown; sequences stand for … in …GCCTAGGGAGATTAGAGTATCGGTCGA"}
{"sequence": "TAGACCAGCCAATTCTACTGGAAGTAGGTA", "binding signal (log2 normalized intensity)": 0.931}
{"sequence": "GGCAAAGGTCACAGCATTAGAGCAACCAGA", "binding signal (log2 normalized intensity)": 0.444}
{"sequence": "GATCAAAAACTGCCTAAATCCAAAGGGCAT", "binding signal (log2 normalized intensity)": 2.44}
{"sequence": "ATAACACCTATGTGCAAAATACCTGGAAGT", "binding signal (log2 normalized intensity)": -0.811}
{"sequence": "TTCAATATACAGTTGGTATTTAGTAAATAT", "binding signal (log2 normalized intensity)": 1.39}
{"sequence": "CTCACACACACACACACACAGCTTGGAGCT", "binding signal (log2 normalized intensity)": -1.34}
{"sequence": "ACTCAATGCTGCTGATGCAGAGGGTGCAAA", "binding signal (log2 normalized intensity)": 0.744}
{"sequence": "TTTTTTTTTTGAGATGGAATCTTGCCCTGT", "binding signal (log2 normalized intensity)": 3.54}
{"sequence": "TCATAAAACACCCACCTTGTTATCTTGTCT", "binding signal (log2 normalized intensity)": 1.34}
{"sequence": "GCATGAGACTGAAATTCCTTGACCCTGAAA", "binding signal (log2 normalized intensity)": 2.12}
{"sequence": "GAGAATTAAACTGCCGCGCCACTGCGTCCA", "binding signal (log2 normalized intensity)": -1.31}
{"sequence": "TTTGACATCACCTAACTTGTGGCTGGGTGA", "binding signal (log2 normalized intensity)": 1.15}
{"sequence": "GGGCAGCTCCGTTTACCTAGAGGCAGGCGT", "binding signal (log2 normalized intensity)": -1.24}
{"sequence": "TAGAATTGCACTGCAAAGAAGTCAAACTTT", "binding signal (log2 normalized intensity)": 1.07}
{"sequence": "GATAACATCTGGACTTTACACAGACCTTTA", "binding signal (log2 normalized intensity)": 4.07}
{"sequence": "ACTTAAGTCTCAAAGGTCAGATGACAGAAT", "binding signal (log2 normalized intensity)": 4.77}
{"sequence": "CTGGCTTTCTTTGGAGTCAATCTGCAAAGG", "binding signal (log2 normalized intensity)": 1.18}
{"sequence": "ACATGGAATGTCGTGCCCTAATCTCACTCT", "binding signal (log2 normalized intensity)": -0.136}
{"sequence": "ACAGATCAGATATGAGATTCCCAGAGAGCT", "binding signal (log2 normalized intensity)": -1.32}
{"sequence": "GCCTCACACCCTCTAGGGTAGATAAGGATG", "binding signal (log2 normalized intensity)": -0.448}
{"sequence": "AGATTAATGTCAGCCTGCTCAGGGAGAAGC", "binding signal (log2 normalized intensity)": -1.33}
{"sequence": "ATACTGCAGCTCTGCGTCTTACTAAATGCA", "binding signal (log2 normalized intensity)": -1.18}
{"sequence": "TGTGTCTTATTTATCTTCACATTCCATCAT", "binding signal (log2 normalized intensity)": 1.3}
{"sequence": "GATGGGGGTGGGAGGCTGGGAGGAGGGTAA", "binding signal (log2 normalized intensity)": -1.39}
{"sequence": "TAGCATGAATTTGGTACCTCCCCCCACACC", "binding signal (log2 normalized intensity)": 5.55}
{"sequence": "GAAAAGGAAATATCTTCGTATAGAAACAAG", "binding signal (log2 normalized intensity)": -0.949}
{"sequence": "GCAAACCTGCCCTTTGCTCCAGAGGAAGAT", "binding signal (log2 normalized intensity)": 3.81}
{"sequence": "ACCCATATCTGACTGATGCTAAAGTCTACA", "binding signal (log2 normalized intensity)": 1.72}
{"sequence": "CCACCTGGAATGTGCTCCCGACTGCTCCAC", "binding signal (log2 normalized intensity)": 0.00529}
{"sequence": "ACTAAGATTTGACTGGAATGTCAAAGGGAC", "binding signal (log2 normalized intensity)": 1}
{"sequence": "CAGAAACCTCATTGTGATGTGTGCGTTCAT", "binding signal (log2 normalized intensity)": 1.2}
{"sequence": "AACTCCAAGATTAGTGGGAAAGCTATTGCT", "binding signal (log2 normalized intensity)": -1.32}
{"sequence": "CGAGCATGGCCGCTCCGCGAGGTGAGCCAT", "binding signal (log2 normalized intensity)": 1.32}
{"sequence": "GATCAATGAATACATGAGTGATCCTGAAAA", "binding signal (log2 normalized intensity)": 1.01}
{"sequence": "TCAGAAATGCATGAGTGACCTTTATCCAGT", "binding signal (log2 normalized intensity)": 5.8}
{"sequence": "CCTCATTTTTCCTGGATGCCAGGCAAGAGC", "binding signal (log2 normalized intensity)": 0.294}
{"sequence": "GGAGGAGACTTTGACCTCTGCTAGGTTTGG", "binding signal (log2 normalized intensity)": 5.5}
{"sequence": "GTGCCCTCATAAGAGACTTTGCCCTTTTTT", "binding signal (log2 normalized intensity)": 6.35}
{"sequence": "TGGGAATGGAGAGAGAGAGAATAGCTCAGG", "binding signal (log2 normalized intensity)": -1.4}
{"sequence": "TTACAAGGAGATATGCACTTGCCCTTTGGT", "binding signal (log2 normalized intensity)": 4.59}
{"sequence": "TGGCAAAGCTATTCACTTTTTGGCCTTTGG", "binding signal (log2 normalized intensity)": 3.87}
{"sequence": "AAGATGACCAGCGTGTGGCGCCATTTCAGG", "binding signal (log2 normalized intensity)": -1.38}
{"sequence": "CTTGAGGACAGGCCAAATCCAGTAAGGCAC", "binding signal (log2 normalized intensity)": -1.24}
{"sequence": "GGAGAGGTGGAGAAAGGCAGAAGGTTCCAG", "binding signal (log2 normalized intensity)": -1.11}
{"sequence": "TCAGGGCCACGGGAAAACCTGACTGCGCTC", "binding signal (log2 normalized intensity)": -1.3}
{"sequence": "TGCATGCAAAAAGGCTGACCTTTGACTCTC", "binding signal (log2 normalized intensity)": 8.15}
{"sequence": "TGGATACAGGGTAGGGCCAACCAACCCAAC", "binding signal (log2 normalized intensity)": -1.38}
{"sequence": "TCAAGTGATCGAAGGTCAACTTATCAGCAT", "binding signal (log2 normalized intensity)": 3.89}
{"sequence": "GGGACAAGCACATTAGGAGGAAAAAGAATG", "binding signal (log2 normalized intensity)": -1.33}
{"sequence": "TGAAGGTAGGACAGGGTGATCAGAGATCTA", "binding signal (log2 normalized intensity)": -1.3}
{"sequence": "ATAAATAAAGCCCTGGGGTAATAAAAGTGT", "binding signal (log2 normalized intensity)": -0.134}
{"sequence": "GGCCGCTCTCCCTCCAGGCCCCAGCCACGC", "binding signal (log2 normalized intensity)": 2.23}
{"sequence": "TCAGGAGAGCATCTGAGTGTCAAAAACAAT", "binding signal (log2 normalized intensity)": -0.366}
{"sequence": "GCCCTTAAAGGCTTTTGCAAGAAAACCAGC", "binding signal (log2 normalized intensity)": -1.07}
{"sequence": "GGTGGGCTGCTCCCAGTGCCCTTTGAACTC", "binding signal (log2 normalized intensity)": 8.91}
{"sequence": "AGTCCAAGTTCCACATCAAGCACATTCCAG", "binding signal (log2 normalized intensity)": -1.23}
{"sequence": "TTATGGCCACTGTGTGTGTGTGTGTGTCTG", "binding signal (log2 normalized intensity)": 2.74}
{"sequence": "CCCCACCCCCACTGCCTGACCCCAAGTAAT", "binding signal (log2 normalized intensity)": 7.09}
{"sequence": "TGCTTCAGCAAAACCAGTTTGTCTGATCTT", "binding signal (log2 normalized intensity)": -0.615}
{"sequence": "CAAGGTCCCATGGCTAATCTGTGACTGAGC", "binding signal (log2 normalized intensity)": -1.1}
{"sequence": "GTGATCAGAGATCTAGGTGAGGGATGAGGA", "binding signal (log2 normalized intensity)": -1.33}
{"sequence": "CAAAGGACAATAATGAATAAGCACGTTAGA", "binding signal (log2 normalized intensity)": -0.992}
{"sequence": "AAGGGGAAATATGTAGGTTTGGGGAACTTT", "binding signal (log2 normalized intensity)": 1.7}
{"sequence": "GTCAAAAATTTGTGTGTAACATTTGACTTC", "binding signal (log2 normalized intensity)": 1.97}
{"sequence": "GCGGCTGCAAATTCTGCATTTTTCTTTCCT", "binding signal (log2 normalized intensity)": -1.39}
{"sequence": "CCCCTTGGCTACATGTTTGTCTTTCAAACA", "binding signal (log2 normalized intensity)": 1.34}
{"sequence": "TGGGCCCCACAGTGCATCTGATAAGGTTGT", "binding signal (log2 normalized intensity)": 0.409}
{"sequence": "GACAAAGGTCATTCATGTGCAGGTTGGAAT", "binding signal (log2 normalized intensity)": 3.11}
{"sequence": "TGTGAATGAAAGAGACTAGTATGTAAATAA", "binding signal (log2 normalized intensity)": -0.396}
{"sequence": "CTTGGAGGCGGCGGCTCCGGGAGCTGGCGG", "binding signal (log2 normalized intensity)": -1.31}
{"sequence": "TTGATGGTTAAAGTCCAATCTTCTGGCCCC", "binding signal (log2 normalized intensity)": 5.12}
{"sequence": "CCAGGTCGGGCCGGAGAGGCTTATTCCGTA", "binding signal (log2 normalized intensity)": -1.37}
{"sequence": "TATGGACCTTGTCCCTGGATTGTGTTGCAC", "binding signal (log2 normalized intensity)": 3.35}
{"sequence": "GGAGGACTTTGGAATGGCAGTGCTTGTCCA", "binding signal (log2 normalized intensity)": 2.52}
{"sequence": "TCTGGTGCCAAGGAGCCTCTGCAACCTTTG", "binding signal (log2 normalized intensity)": 3.43}
{"sequence": "GGGACTGTGCAGACAAGATATGAGGCCAGT", "binding signal (log2 normalized intensity)": -0.346}
{"sequence": "CCCAGATGGAGTGCTCTGAACCGTGTACCT", "binding signal (log2 normalized intensity)": 2.23}
{"sequence": "TCCCATCTTGCAGCTGACCCTGGCCGGAAA", "binding signal (log2 normalized intensity)": 2.05}
{"sequence": "CTGAGAAGATGAAAGACGAAAGGGACTTTG", "binding signal (log2 normalized intensity)": 2.82}
{"sequence": "ACAGAAGGCAGAGATTTGAGTCAACCCAAC", "binding signal (log2 normalized intensity)": -1.15}
{"sequence": "GCAGGCTTAGCTGGGCTAGCACCTGTGGAT", "binding signal (log2 normalized intensity)": -1.3}
{"sequence": "TACTTTGCTCTCAGCACACTCTGGTACCAT", "binding signal (log2 normalized intensity)": -0.259}
{"sequence": "TCTCACATCTGATAGCTAAACCAGATACGT", "binding signal (log2 normalized intensity)": -0.926}
{"sequence": "GGTGGTGACAAAGACAGATTAGATCTGCGT", "binding signal (log2 normalized intensity)": -1.31}
{"sequence": "CAGCGACTGAGCTGAGGTTAGAATCCTTAT", "binding signal (log2 normalized intensity)": -1.27}
{"sequence": "TAGAAGTATGTCTGGGATTTGAAGGAGCAG", "binding signal (log2 normalized intensity)": -1.3}
{"sequence": "CTCTCGCCGAGGCCCCAGGAGACCCCGCGA", "binding signal (log2 normalized intensity)": 2.25}
{"sequence": "CACATTCCAGCTCTGTGACTTTACCTGAAA", "binding signal (log2 normalized intensity)": -0.734}
{"sequence": "TCTCTCAAGGTTCCCAGCTAAATAAATAAC", "binding signal (log2 normalized intensity)": -1.1}
{"sequence": "TTGCGAGGTTCCATGGTGTAATGGTTAGCA", "binding signal (log2 normalized intensity)": 1.64}
{"sequence": "GGATCAAGTGGCAATAAACTCCGTTATCAC", "binding signal (log2 normalized intensity)": -0.696}
{"sequence": "GAGTCCAGAGGTCAAGGCTGCAGCGAGCCA", "binding signal (log2 normalized intensity)": 3.14}
{"sequence": "TGAAAGAGCTCAAATGACAGAACAGTCCAG", "binding signal (log2 normalized intensity)": -0.801}
